Assay results reported in the supplement of paper PMC8728848.
The list shows a part of the results.

Legend:
Test in all cases: glycan array binding signal (z-score within array); higher = stronger binding
Details in all cases: glycan notation: IUPAC condensed, linker removed
[1] = molecular target: Gal(b1-4)Glc
Outline: (§1)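 Glycan array binding is given as a within-array Z-score, which can be read as non-binding when negative. The arrays, 3228 of them, came from the Consortium for Functional Glycomics database and were retained only where the protein sequence was available. Z-scores were averaged across arrays of the same protein sequence at different concentrations or buffers and across linkers.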

[2] = molecular target: Gal(b1-4)Glc6S
Outline: as §1

[3] = molecular target: Gal(b1-4)GlcNAc
Outline: as §1

[4] = molecular target: Gal(b1-4)GlcNAc(a1-6)Gal(b1-4)GlcNAc
Outline: as §1

[5] = molecular target: Gal(b1-4)GlcNAc(b1-2)Man
Outline: as §1

[6] = molecular target: Gal(b1-4)GlcNAc(b1-2)Man(a1-3)Man(b1-4)GlcNAc(b1-4)GlcNAc
Outline: as §1

[7] = molecular target: Gal(b1-4)GlcNAc(b1-2)Man(a1-3)[Gal(b1-4)GlcNAc(b1-2)Man(a1-6)]Man(b1-4)GlcNAc(b1-4)GlcNAc
Outline: as §1

[8] = molecular target: Gal(b1-4)GlcNAc(b1-2)Man(a1-3)[Gal(b1-4)GlcNAc(b1-2)Man(a1-6)]Man(b1-4)GlcNAc(b1-4)[Fuc(a1-6)]GlcNAc
Outline: as §1

[9] = molecular target: Gal(b1-4)GlcNAc(b1-2)Man(a1-3)[Gal(b1-4)GlcNAc(b1-2)Man(a1-6)][Gal(b1-4)GlcNAc(b1-4)]Man(b1-4)GlcNAc(b1-4)[Fuc(a1-6)]GlcNAc
Outline: as §1

[10] = molecular target: Gal(b1-4)GlcNAc(b1-2)Man(a1-3)[Gal(b1-4)GlcNAc(b1-2)Man(a1-6)][GlcNAc(b1-4)]Man(b1-4)GlcNAc(b1-4)[Fuc(a1-6)]GlcNAc
Outline: as §1

[11] = molecular target: Gal(b1-4)GlcNAc(b1-2)Man(a1-3)[GlcNAc(b1-2)Man(a1-6)]Man(b1-4)GlcNAc(b1-4)GlcNAc
Outline: as §1

[12] = molecular target: Gal(b1-4)GlcNAc(b1-2)Man(a1-3)[GlcNAc(b1-4)][Gal(b1-4)GlcNAc(b1-2)Man(a1-6)]Man(b1-4)GlcNAc(b1-4)GlcNAc
Outline: as §1

[13] = molecular target: Gal(b1-4)GlcNAc(b1-2)Man(a1-3)[Man(a1-6)]Man(b1-4)GlcNAc(b1-4)GlcNAc
Outline: as §1

[14] = molecular target: Gal(b1-4)GlcNAc(b1-2)Man(a1-6)Man(b1-4)GlcNAc(b1-4)GlcNAc
Outline: as §1

[15] = molecular target: Gal(b1-4)GlcNAc(b1-2)Man(a1-6)[GlcNAc(b1-2)Man(a1-3)]Man(b1-4)GlcNAc(b1-4)GlcNAc
Outline: as §1

[16] = molecular target: Gal(b1-4)GlcNAc(b1-2)Man(a1-6)[Man(a1-3)]Man(b1-4)GlcNAc(b1-4)GlcNAc
Outline: as §1

[17] = molecular target: Gal(b1-4)GlcNAc(b1-2)[Gal(b1-4)GlcNAc(b1-4)]Man(a1-3)[Gal(b1-4)GlcNAc(b1-2)Man(a1-6)]Man(b1-4)GlcNAc(b1-4)GlcNAc
Outline: as §1

[18] = molecular target: Gal(b1-4)GlcNAc(b1-2)[Gal(b1-4)GlcNAc(b1-4)]Man(a1-3)[Gal(b1-4)GlcNAc(b1-2)[Gal(b1-4)GlcNAc(b1-6)]Man(a1-6)]Man(b1-4)GlcNAc(b1-4)GlcNAc
Outline: as §1

[19] = molecular target: Gal(b1-4)GlcNAc(b1-2)[Gal(b1-4)GlcNAc(b1-4)]Man(a1-3)[GlcNAc(b1-4)][Gal(b1-4)GlcNAc(b1-2)Man(a1-6)]Man(b1-4)GlcNAc(b1-4)GlcNAc
Outline: as §1

[20] = molecular target: Gal(b1-4)GlcNAc(b1-2)[Gal(b1-4)GlcNAc(b1-4)]Man(a1-3)[GlcNAc(b1-4)][Gal(b1-4)GlcNAc(b1-2)[Gal(b1-4)GlcNAc(b1-6)]Man(a1-6)]Man(b1-4)GlcNAc(b1-4)GlcNAc
Outline: as §1

[21] = molecular target: Gal(b1-4)GlcNAc(b1-2)[Gal(b1-4)GlcNAc(b1-6)]Man(a1-6)[Gal(b1-4)GlcNAc(b1-2)Man(a1-3)]Man(b1-4)GlcNAc(b1-4)GlcNAc
Outline: as §1

[22] = molecular target: Gal(b1-4)GlcNAc(b1-2)[Gal(b1-4)GlcNAc(b1-6)]Man(a1-6)[Gal(b1-4)GlcNAc(b1-2)Man(a1-3)]Man(b1-4)GlcNAc(b1-4)[Fuc(a1-6)]GlcNAc
Outline: as §1

B1: GNL (Galanthus nivalis) (protein)
chain: MGHHHHHHHHYGTLENGHWLMVGMSIFSKDRTVELRMQDDGKLAIYYNDHCAWQSTAQQVNNAKGAVMQGDGNFCIYDKNGKATWHTNTAAPSGDSHTFVSVQDDGNLVLYKNNGATPIWSSKSNK
glycan array binding signal (z-score) [1]: -0.219
glycan array binding signal (z-score) [2]: -0.152
glycan array binding signal (z-score) [3]: -0.238
glycan array binding signal (z-score) [4]: -0.255
glycan array binding signal (z-score) [5]: -0.238
glycan array binding signal (z-score) [6]: 2.56
glycan array binding signal (z-score) [7]: 4.76
glycan array binding signal (z-score) [8]: 0.872
glycan array binding signal (z-score) [9]: -0.213
glycan array binding signal (z-score) [10]: -0.238
glycan array binding signal (z-score) [11]: 3.92
glycan array binding signal (z-score) [12]: -0.271
glycan array binding signal (z-score) [13]: 10.9
glycan array binding signal (z-score) [14]: -0.253
glycan array binding signal (z-score) [15]: 7.59
glycan array binding signal (z-score) [16]: -0.201
glycan array binding signal (z-score) [17]: -0.104
glycan array binding signal (z-score) [18]: -0.192
glycan array binding signal (z-score) [19]: -0.235
glycan array binding signal (z-score) [20]: -0.148
glycan array binding signal (z-score) [21]: -0.003
glycan array binding signal (z-score) [22]: -0.193
